This passage reports TGI and GI50 results from PubChem BioAssay (NCI).

The test has as its system NCI-H322M lung. In words: NCI anticancer screen, dose series, 48 h.

Several values for one entry are separate records, joined by “and”; a condition that tells them apart may be missing. Equal entries are not always repeated.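 Tested at 5 concentrations; 48 h exposure; 96-well plates; endpoints linearly interpolated, else capped at highest concentration. At the GI50, growth is halved. TGI is the concentration that stops growth completely.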 Bridge positions count the residues as written; N and C are the ends. Peptide text beside a SMILES is read from it. Some results are limits rather than exact numbers.

As for `COc1ccc(OCC(=O)O)c2c1CCC(C)C2=O` (stereo not given), the TGI was over 100 µM.
`O=C(C#Cc1ccccc1)NC/C=C/c1ccccc1` returned a TGI of over 100 µM.
Same read-out and setting: the value for `Cc1noc(-c2ccc(C(=O)O)[nH]2)c1Br` was over 100 µM.
On to `CCOC(=O)/C=C/c1ccc([N+](=O)[O-])o1`, for which the GI50 is 79.6 µM and the TGI was over 100 µM.
On to `O=C1c2ccccc2-c2c1c1ccccc1c(=O)n2CCNCCNCCNCCNCCn1c2c(c3ccccc3c1=O)C(=O)c1ccccc1-2`, for which the GI50 is 0.0272 µM and the TGI was 0.219 µM.
`CN1CCC(O)(OC(=O)C(c2ccccc2)C2(O)CCCC2)CC1` (stereo not given): the TGI is over 100 µM.
In the case of `Cc1oc(N)c(S(=O)(=O)/C(C#N)=C/c2ccccc2[N+](=O)[O-])c1C`, the TGI was over 100 µM.
The compound `CC(C)(C)c1cc(C(C)(C)C)c(SC2OC(CO)C(O)C(O)C2O)c(O)c1O` (stereo not given) came in with a TGI of 30.8 µM.
The same measure, in the same setting: the same measure for `C/C(=C\c1ccccc1)C(=O)c1c(C)cc(C)cc1C`: over 100 µM.
Still for that read-out and setting: the same measure for `COc1ccc(-c2nc(-c3cnccn3)n(C/C=C/c3ccccc3)n2)cc1`: over 100 µM.
On the same count and under the same terms, the value for `O=C(Nc1ccccc1)N1C(c2ccccc2)=N[C@@H](c2ccccc2)[C@@H]1c1ccccc1` was 70.8 µM; that for `Cc1nc(Nc2ccc(Cl)cc2)sc1C(=O)Nc1cccc2c(=O)[nH][nH]c(=O)c12` was over 100 µM.
Consider `C=CCCCN(C(=O)c1ccccc1)c1ccc(C(=O)OC)o1`, for which the TGI is over 100 µM.
`Cc1cc(C)c(S(=O)(=O)N(CCCCCN)OCCCN)c(C)c1` displayed a TGI of 33.6 µM.
With `CSC(=S)NCc1cn(C)c2ccccc12`, the GI50 is 45.4 µM and the TGI is over 100 µM.
With `CC1=NN(c2ccccc2)C(=O)/C1=C\c1c(C)[nH]n(-c2ccccc2)c1=O`, the TGI was over 100 µM.
Still for that read-out and setting: the value for `CC(C)=CCNc1ncnc2c1ncn2CCC(=O)O` was over 100 µM.
On the same count and under the same terms, the value for `O=C(CCC(NC(=O)OCc1ccccc1)C(=O)OCc1ccccc1)Nc1cccc(OCc2ccccc2)c1` (stereo not given) was 79.9 µM; that for `CC(=O)OC1C2CCC3CC2C2(SCCS2)C31` (stereo not given) was over 100 µM.
Still for that read-out and setting: the value for `C#CCn1c(I)cc2c(c1=O)COC(=O)[C@]2(O)CC` was over 100 µM.
In turn, `O=C1N=C2N=C(c3ccc(Cl)cc3)N(c3ccc(Cl)cc3)N2Sc2ccccc21` yielded a TGI of over 100 µM.
As for `C/C(N=NS(=O)(=O)c1c(C)cc(C)cc1C)=C1\C=CC=CN1O`, the TGI is over 100 µM.
The same measure, in the same setting: the same measure for `CCNC(=O)COc1ccc(Cl)c(C)c1`: over 100 µM.
For `COC(=O)c1c(C(=O)O)c(-c2ccccc2)c(-c2ccccc2)c(-c2ccccc2)c1-c1ccccc1`, the GI50 was over 100 µM and the TGI was over 100 µM.
`CC(=O)N1CCOC12N=NC(C)(C)O2` (stereo not given) registered a TGI of over 100 µM.
Regarding `S=C(Nc1ccc(-c2nc3ccccc3s2)cc1)Nc1ccc(-c2nc3ccccc3s2)cc1`, the GI50 was 21.9 µM and the TGI is over 100 µM.
`O=C(NNC(=O)c1ccc(Cl)cc1NC(=O)C12CC3CC(CC(C3)C1)C2)c1ccc(Cl)cc1`: the TGI turned out to be 67.9 µM.
The same measure, in the same setting: the value for `COc1cc(/C=C2\N=C(c3ccccc3)N(c3cc4cc(Sc5ccccc5)ccc4[nH]3)C2=O)ccc1O` was over 50 µM.
Turning to `COc1ccc(CN2c3ccccc3Sc3ccccc32)cc1O`, the GI50 was 11.7 µM and the TGI came to 25.3 µM.
The corresponding values for `COc1ccc(/C=C(\C#N)c2cc(OC)c(OC)c(OC)c2)cc1` are 67.6 µM and over 100 µM.
In turn, `CCOC(=O)C1=C(N2CCCC2)C(=O)C(C(=O)OCC)C1` (stereo not given) came in with a TGI of over 100 µM.
In turn, `O=C1C(=O)N(c2cc(Cl)ccc2Cl)C(=O)C(=O)C1c1nc2ccccc2s1` displayed a TGI of over 100 µM.
Turning to `Cc1cc(C)c(-c2c(O)c(Br)c(-c3c(C)cc(C)c(Br)c3C)c(O)c2Br)c(C)c1Br`, the GI50 was 3.1 µM and the TGI turned out to be 21.4 µM.
`Cc1c(C(=O)O)sc2nc[nH]c(=O)c12` had a TGI of over 100 µM.
The same measure, in the same setting: the value for `O=C(O)C12C=CC(C1)c1ccccc12` (stereo not given) was over 100 µM.
`C=CCN1C(=O)C[C@H](Cc2ccccc2)NC(=O)C[C@H](Cc2ccccc2)N(CC=C)C(=O)C[C@H](Cc2ccccc2)NC(=O)C[C@@H]1Cc1ccccc1` yielded a TGI of over 100 µM.
The compound `CCNc1ccc2c(c1)C(=O)N(OS(C)(=O)=O)C2=O` had a TGI of over 100 µM.
The same measure, in the same setting: the same measure for `COc1c(NC(C)=O)c2ccccc2c2ccccc12`: over 100 µM.
`Nc1ccccc1SC(/C=C/NNC1=NC(c2ccccc2)C(c2ccccc2)=NN1)c1ccccc1` (stereo not given): the TGI was determined as 29.9 µM.
`COc1ccc(-c2c(/C=N/OCC(=O)O)c3sc4ccccc4n3c2/C=N/OCC(=O)O)cc1` displayed a TGI of over 50 µM.
As to `Nc1ccc(C(=O)N/C(=C\c2ccc3c(c2)OCO3)c2nc3ccccc3s2)cc1`, the TGI is 29.9 µM.
As for `C[C@@H]1C[C@@H]2OC(=O)[C@]3(C)[C@H]2[C@@H](OC3(C)O)[C@]2(C)C(=O)C=C[C@@H]12` (stereo not given in full), the TGI was over 100 µM.
`N/C(=N\N=C/c1c(O)cc(O)cc1O)NO` came in with a TGI of over 100 µM.
As for `C=C(CN1CCc2ccccc2C1)c1ccc(CCCC(=O)Nc2ccccc2N)cc1`, the GI50 was 22.2 µM and the TGI was over 100 µM.
The compound `O=C(NNC(=O)c1ccncc1)C(=O)Nc1cc(Cl)c(Cl)cc1Cl` had a TGI of over 100 µM.
As to `CSCCC(NC(=O)C(Cc1c[nH]c2ccccc12)NC(=O)CCNC(=O)OC(C)(C)C)C(=O)NC(CC(=O)O)C(=O)NC(Cc1ccccc1)C(N)=O` (stereo not given), the TGI was over 50 µM.
With `O=C(O)c1c(CC(Cc2ccccc2)C(=O)O)ccc2c1CCC2` (stereo not given), the TGI is over 100 µM.
In turn, `Cc1ccc(N2Cc3c(ccc4ccccc34)OP2(=S)N2CCCC2)cc1` (stereo not given) registered a TGI of over 100 µM.
In turn, `C=C1C(=O)O[C@@H]2C[C@@H](C)[C@@H]3C=CC(=O)[C@@]3(C)[C@@H](OC(=O)CCCC(=O)O[C@H]3[C@@H]4C(=C)C(=O)O[C@@H]4C[C@@H](C)[C@@H]4C=CC(=O)[C@]43C)[C@H]12` displayed a TGI of 2.49 µM.
Still for that read-out and setting: the value for `COC(=O)C1=C(O)c2cc(OC)c(OC)c(OC)c2C(c2ccc3c(c2)OCO3)[C@@H]1C(=O)OC` (stereo not given in full) was over 100 µM; that for `COc1ccc(C2C3=C(COC3=O)Oc3cc4c(cc32)OCO4)cc1OC` (stereo not given) was over 100 µM.
Compound `Cc1cc2ccccc2oc(=O)/c1=N\Nc1ccccc1` yielded a TGI of over 100 µM.
Take `CC(C)=CC(=O)OC1C2C(C)=CC(=O)C(O)C2(C)C2C3(O)OCC24C(CC(=O)OC14)C(C)C3O` (stereo not given): the GI50 was 0.13 µM and 0.0969 µM; the TGI was 0.623 µM and 3.13 µM and 0.776 µM.
As to `N#C/C(=C/C=C/c1cccc(Cl)c1)S(=O)c1ccccc1` (stereo not given), the GI50 is 0.52 µM and the TGI stood at 2.01 µM.
In turn, `CCOC(=O)c1cnc2n(c1=O)[C@H]1CCCC[C@@H]1N2` came in with a TGI of over 100 µM.
`C[C@]12CC[C@H](OC(=O)Nc3ccccc3)CC1=CC[C@@H]1C2CC[C@]2(C)/C(=N/OC(=O)Nc3ccccc3)CCC12` (stereo not given in full) returned a TGI of over 100 µM.
Same read-out and setting: the value for `C[C@@H]([C@H]1CC[C@@]2(C)[C@@H]3CC[C@@H]4C(=CC3=CC[C@]12C)CC[C@H](N(C)C)C4(C)C)N(C)C` was over 100 µM; that for `COC(=O)[C@@H]1C=CCN1S(=O)(=O)c1ccc(C)cc1` was over 100 µM.
For the compound `COC(=O)CCC(NC(=S)N/N=C(\C)c1cccs1)C(=O)OC` (stereo not given), the TGI was over 100 µM.
In the case of `COc1ccc2c(CN3CCCC[C@H]3O)cc3cc4c(cc3c2c1)OCO4`, the GI50 was 0.42 µM and the TGI came out at 5.12 µM.
`C#CC(O)/C=C/C(O)CCCC(O)CC#CC(O)C#CCCCCC(O)/C=C/CCCC(=O)CCCCCCCCCCCCCCCC(O)C(O)C#CC(=O)O` (stereo not given): the TGI is over 25 µM.
Same read-out and setting: the same measure for `O=C(CC1(O)CCCCC1)OC1CCCC1`: over 100 µM.
The same measure, in the same setting: the value for `O=C(NC1=C(Cl)C(=O)c2ccccc2C1=O)C(=O)c1c(O)c2ccccc2oc1=O` was 20.5 µM; that for `Cc1cc2ccccc2n2c1nc1ccc(O)cc12` was over 10 µM.
Compound `CCOC(=O)c1c(SC(=O)c2ccc(Cl)cc2)n(-c2ccccc2)c(=S)n(-c2ccccc2)c1=O` came in with a TGI of over 100 µM.
`COc1c2c(c(O)c3c4c(c(C)cc13)C1OC3(C(OC)OC5CC(C)(O)C(OC6CC(C)(O)C(O)C(C)O6)C(C)O5)OC1C(OC)(O4)C31CO1)C(=O)C(O)CC2OC1CC(C)(O)C(OC(C)=O)C(C)O1` (stereo not given) returned a TGI of under 0.01 µM.
The same measure, in the same setting: the value for `CC(C)(C)OC(=O)NCC(c1c[nH]c2ccccc12)c1c[nH]c2ccccc12` was 30.8 µM; that for `C[C@]12CC[C@H]3[C@@H](CC=C4C[C@@H](O)CC[C@@]43C)[C@@H]1C/C(=C\c1ccc([N+](=O)[O-])cc1)[C@@H]2O` was 22.5 µM; that for `O=C(Cc1nc2ccccc2s1)C(=O)Nc1cccc(C(F)(F)F)c1` was over 100 µM.
The compound `COC(=O)C1CCC(=O)NCCCCC(NC(=O)C(N)CC(=O)O)C(=O)N1` (stereo not drawn) (H-Asp-Lys-Glu-OMe; lactam 2-3; configuration not given here) returned a TGI of over 100 µM.
In turn, `O=[N+]([O-])/C(Cl)=C(\NCCO)C(Cl)=C(Cl)Cl` yielded a TGI of over 100 µM.
On the same count and under the same terms, the value for `CC(Cl)(CCC(Cl)C(C)(C)Cl)C(=O)CBr` (stereo not given) was 58.6 µM.
`CC(=O)c1nc(-c2ccc(C[C@@H](CNC(=O)CN(C)C)NC(=O)c3ccc(OC(C)C)c(Cl)c3)cc2)cn1C`: the GI50 was 0.121 µM and the TGI was found to be 19 µM.
In the same order, the values of `N.N.N.N.O=S([O-])[O-].[Co+3].[N-]=[N+]=[N-]` are over 100 µM and over 100 µM.
The compound `C[C@H](NC(=O)C(C)(Cc1ccc(O)cn1)NC(=O)c1ccccc1)c1ccccc1` (stereo not given in full) gave a TGI of over 100 µM.
On the same count and under the same terms, the value for `COc1cccc(C=NC23CC4CC(CC(C4)C2)C3)c1` was over 100 µM; that for `O=C(O)CCN1C(=S)CSC1=S` was over 100 µM.
Take `CN(CCOc1ccc(NS(C)(=O)=O)cc1)CCc1ccc(NS(C)(=O)=O)cc1`: the GI50 was over 100 µM and the TGI was over 100 µM.
With `COC1CCC(CO)OO1` (stereo not given), the TGI was over 100 µM.
Compound `Clc1cc(Cl)nc(Nc2ccc3c(c2)CCC3)n1` registered a TGI of 68 µM.
As to `CSCSCC(CO)NC(=O)/C=C\c1c(C)[nH]c(=O)[nH]c1=O` (stereo not given), the TGI was found to be 105 µM.
For the compound `CC(C)(C)N=C1C(=O)C2(C)CCC1C2(C)C` (stereo not given), the TGI was over 100 µM.
In turn, `CC(=O)c1c(-c2ccco2)c(C#N)c(=S)n(C2OC(CO)C(O)C(O)C2O)c1C` (stereo not given) gave a TGI of over 100 µM.
In turn, `Cc1cc(O)c2c(c1)OC1(C)CCC3C(C)(C)CCCC34COC2C14` (stereo not given) came in with a TGI of 18.4 µM.
Still for that read-out and setting: the value for `O=c1cc(-c2ccccc2)oc2cc(OCCCCCCCCCCOc3ccc4c(=O)cc(-c5ccccc5)oc4c3)ccc12` was over 100 µM.
